# According to PubChem BioAssay AID1508623 (National Center for Advancing Translational Sciences (NCATS), 2021):
# Out of some 48,000 compounds screened, about 450 (0.94%) were called active. Inconclusive results, whose numbers are uncertain, are shown with a selection of clear calls. Calls come from the whole dose curve; as a rule, active = well fitted inhibition curve with a large enough effect; inconclusive = small, poorly fitted or top-dose-only effect; inactive = no such curve, though single readings can be large or run the other way. Where the call is inconclusive, the potency comes from a doubtful curve fit.
# Experiment: Primary qHTS for Identification of Small Molecule Inhibitors of Huntingtin Promoter Activity; note: nearly all actives have a fitted effect of over 50% in size
# Details: HEK293 HTT promoter firefly luciferase reporter (activity 0% = vehicle and -100% = no light), 24 h; activity change, negative = inhibition: at 57.5 µM (top of the series)
# Text: Assay Provider: Russell L. Margolis M.D.
# Department Neurology, Johns Hopkins University School of Medicine, Baltimore, MD
# Huntington's Disease (HD) is a neurodegenerative disorder caused by a CAG repeat expansion in exon 1 of huntingtin (HTT). While there are currently no disease-modifying treatments for HD, recent efforts have focused on development of nucleotide-based therapeutics to lower HTT expression. As an alternative to siRNA or oligonucleotide methods, we hypothesized that suppression of HTT expression might be accomplished by small molecules that either (1) directly decrease HTT expression by suppressing HTT promoter activity or (2) indirectly decrease HTT expression by increasing the promoter activity of HTT-AS, the gene antisense to HTT that appears to inhibit expression of HTT.
# We developed and employed a high throughput screen for modifiers of HTT and HTT-AS promoter activity using luminescent reporter HEK293 cells; of the 52,041 compounds tested, we identified 898 replicable hits. We used a rigorous stepwise approach to assess compound toxicity and the capacity of the compounds to specifically lower huntingtin protein in 5 different cell lines, including HEK293 cells, HD lymphoblastoid cells, mouse primary neurons, HD iPSCs differentiated into cortical-like neurons, and HD hESCs. We found no compounds which were able to lower huntingtin without lowering cell viability in all assays, though the potential efficacy of a few compounds at non-toxic doses could not be excluded.
# SEQUENCE No. (1, 2, 3, etc.); […] (e.g., Cells, Incubation, Reagent, etc.); VALUE and DESCRIPTION.
# 1; Reagent; 4 uL; 2,500 Hek293 luciferase reporter cells per wells
# 3; Compound; 23 nL; Control inhibitor / compound library
# 5; Reagent; 2.5 uL; Firefly Luc reagent; Dual-Glo Luciferase Reporter Assay System (Promega)
# 6; Time; 10 min; room temperature incubation
# 7; Detection; Luminescence; FLuc
# NOTES (numbers refer to sequence above)
# 1; High-throughput screening, measuring luminescence from a Hek293 luciferase reporter, was performed in 1,536 well white-walled tissue-culture treated plates. 2,500 cells were plated in 4 µL of Opti-MEM per well using a Multidrop Combi Reagent Dispenser (ThermoFisher).
# 2; Assay plates were cultured for 24 hours.
# 3; Control inhibitor (PTC124; final concentration of 50 uM) and compound library (at final concentrations of 460 nM - 57.5 uM) were added to the assay plate using the Kalypsis Pintool Robotic System equipped with 1536 pinheads.
# 4; Cells were then incubated for 24 hours at 37 degrees C prior to luminescence measurements.
# 5; In all cases, luminescence was measured using the Dual-Glo Luciferase Reporter Assay System (Promega) following the manufacturer's instructions.
# 6; Room temperature incubation.
# 7; Luminescence signal was obtained using the PerkinElmer ViewLux plate reader. Results were normalized to vehicle control (0% activity) and zero RLU (-100% activity).
# Potency is the fitted concentration of half-maximal effect; tags give direction and shape of the fitted curve.
Compound,Potency,"activity change, negative = inhibition"
C[C@@H](Oc1cc(-n2cnc3ccc(CN4CCN(C)CC4)cc32)sc1C(N)=O)c1ccccc1C(F)(F)F,"inconclusive: 0.0611 µM [inhibitor, full curve]",–
Cc1c(C(=O)NCc2ccc(F)cc2)sc2nc(-c3ccc(F)cc3)cn12,"inconclusive: 39.8 µM [inhibitor, single point]",–
CC(=O)Nc1c(C)nn(-c2ccccc2)c1N1CCC(C(=O)Nc2cccc(C(F)(F)F)c2)CC1,–,inactive: -23.5%
CCOc1ccc(NC(=O)CN2CCSc3ccc(S(=O)(=O)N4CCCC4)cc32)cc1,active: 25.1 µM,–
CCn1cc(S(=O)(=O)c2ccc(C)cc2C)c(=O)c2cc(F)c(N3CCCCC3)cc21,"inconclusive: 39.8 µM [inhibitor, single point]",–
CCc1ccccc1NS(=O)(=O)c1cc(Br)cc2c1N(C(=O)C1CC1)CC2,"inconclusive: 22.4 µM [inhibitor, partial curve, poor fit]",–
CCc1cccc(NS(=O)(=O)c2cc(-c3cnc(C)o3)ccc2OC)c1,"inconclusive: 7.94 µM [inhibitor, partial curve, poor fit]",–
COc1ccc(C(=O)Nc2nc3n(n2)C(c2ccc(F)cc2)C=C(c2ccc(Cl)cc2)N3)cc1 (centres undefined),"inconclusive: 28.2 µM [inhibitor, partial curve]",–
Cc1cccc(NC(=O)Cn2cc(S(=O)(=O)Cc3ccccc3Cl)c3ccccc32)c1,"inconclusive: 39.8 µM [inhibitor, single point]",–
COc1ccc(OC)c(Nc2c3c(nc4ccccc24)CCC3)c1,"inconclusive: 11.2 µM [inhibitor, partial curve]",–
CCc1ccc(NC(=O)c2ccc(F)c(S(=O)(=O)NCCc3ccc(OC)c(OC)c3)c2)cc1,"inconclusive: 28.2 µM [inhibitor, single point]",–
C[C@H]1O[C@H](O[C@H]2[C@H](O)[C@@H](O)[C@@H](O[C@H]3[C@H](O)[C@@H](O)C(O)O[C@H]3CO)O[C@H]2CO)[C@H](O)[C@@H](O)[C@H]1N[C@H]1C=C(CO)[C@@H](O)[C@H](O)[C@@H]1O (some centres undefined),–,inactive: 10.4%
COc1cccc(Nc2sc(C(=O)c3ccc(Cl)cc3)c(N)c2C(=O)NCCc2ccc(OC)c(OC)c2)c1,"inconclusive: 39.8 µM [inhibitor, single point]",–
Cn1c(Oc2ccccc2)nc2c1c(=O)n(Cc1ccc(Cl)cc1Cl)c(=O)n2C,"inconclusive: 39.8 µM [inhibitor, single point]",–
Cc1ccc(C(=O)CC2(O)C(=O)N(Cc3ccccc3)c3ccccc32)c(C)c1 (centres undefined),"inconclusive: 39.8 µM [inhibitor, single point]",–
Cc1ccc(-n2nnnc2CNC(=O)c2ccccc2C)cc1C,–,inactive: 1.21%
Cc1ccc2c(c1)C(c1ccc(F)cc1)N(C(=O)c1cccc(C(F)(F)F)c1)CC(=O)N2 (centres undefined),"inconclusive: 39.8 µM [inhibitor, single point]",–
COc1cccc(N2CCN(Cc3cc(=O)oc4cc(C)ccc34)CC2)c1,–,inactive: -1.31%
CC(C)OCCCN1C(=O)c2[nH]nc(-c3ccccc3O)c2C1c1cccc(OCc2ccccc2)c1 (centres undefined),"inconclusive: 20 µM [inhibitor, partial curve]",–
Cc1c2cnn(CC(=O)N3CCN(c4ccc(F)cc4)CC3)c(=O)c2c(C)n1Cc1ccccc1F,"inconclusive: 39.8 µM [inhibitor, single point]",–

Compound,Potency,"activity change, negative = inhibition"
CC1(COc2ccc3c(c2)ncn3-c2ccc3cccc(N4CCC(N)CC4)c3n2)COC1,"inconclusive: 0.306 µM [inhibitor, full curve]",–
Cc1nc(-c2ccc(C)c(N3CCN(C(=O)Nc4ccc(Br)cc4)CC3)c2)no1,"inconclusive: 25.1 µM [inhibitor, single point]",–
COc1ccc(-n2c(SCC(=O)N3CCCc4ccccc43)nc3c([nH]c4ccccc43)c2=O)cc1,–,inactive: 0.402%
CC(C)(C)OC(=O)N1CCC(c2c(C(=O)Nc3ccc4c(c3)OCO4)cnn2-c2ccc(F)cc2F)CC1,–,inactive: 9.73%
Cc1cc(-c2ccc(C)c(S(=O)(=O)N(Cc3cccs3)C(C)C)c2)on1,"inconclusive: 22.4 µM [inhibitor, single point]",–
CCOC(=O)c1[nH]c2c(c1Cc1ccccc1)C(=O)CC(c1ccc(OC)cc1)C2 (centres undefined),"inconclusive: 39.8 µM [inhibitor, single point]",–
CCOC(=O)c1ccc(NC(=O)c2cnc(N3CCCC3)nc2C)cc1,–,inactive: -20.7%
CCc1ccc2nc(N(Cc3cccnc3)C(=O)c3cccs3)sc2c1,"inconclusive: 39.8 µM [inhibitor, single point]",–
Cc1cc2c(cc1C)C(c1cccc(OC(C)C)c1)CC(=O)N2 (centres undefined),"inconclusive: 31.6 µM [inhibitor, partial curve]",–
CC(=O)c1ccc(NC(=O)CSc2nccn2Cc2ccco2)cc1,–,inactive: 35.8%
COc1cccc(C(=O)N2CCC(c3nc4ccccc4s3)CC2)c1,"inconclusive: 25.1 µM [inhibitor, single point]",–
Cc1ccc(C(=O)Nc2nnc(SCc3cc(=O)c4c(C)ccc(C)c4[nH]3)s2)cc1,"inconclusive: 31.6 µM [inhibitor, single point]",–
c1ccc(N2CCN(c3ncnc4[nH]ncc34)CC2)cc1,–,inactive: -15.4%
Cc1ccc(Cl)cc1NC(=O)c1cccc(NC(=O)N2CCSc3ncccc32)c1,"inconclusive: 20 µM [inhibitor, partial curve, poor fit]",–
COCCN1C(=O)c2[nH]nc(-c3c(C)cc(C)cc3O)c2C1c1cccc(O)c1 (centres undefined),"inconclusive: 20 µM [inhibitor, partial curve, poor fit]",–
CCc1ccccc1N1C(=O)N(Cc2cccc(Cl)c2)c2ccccc2S1(=O)=O,"inconclusive: 31.6 µM [inhibitor, single point]",–
Cc1ccc(-c2nnc(Nc3ccc(Br)cc3)c3ccccc23)cc1S(=O)(=O)NCc1nc2ccccc2[nH]1,"inconclusive: 39.8 µM [inhibitor, single point]",–
CCCCOc1ccc(C(=O)NCCc2sc(-c3cccc(F)c3)nc2C)cc1,"inconclusive: 35.5 µM [inhibitor, partial curve, poor fit]",–
COc1ccc(-c2cn3nc(N4CCC(C(=O)Nc5cccc(OC)c5)CC4)sc3n2)cc1,–,inactive: -9.36%
CCc1ccc(NC(=O)CSc2nccn2-c2cccc(C)c2C)cc1,"inconclusive: 39.8 µM [inhibitor, single point]",–

Compound,Potency,"activity change, negative = inhibition"
CCc1ccc(NC(=O)c2ccc(F)c(S(=O)(=O)N(C)C3CCCCC3)c2)cc1,"inconclusive: 15.8 µM [inhibitor, partial curve, poor fit]",–
CC1CN(C(=O)N2CCC(C(=O)NCCC3=CCCCC3)CC2)c2cc(Cl)ccc2O1 (centres undefined),"inconclusive: 31.6 µM [inhibitor, single point]",–
COc1ccc(NC(=O)CSc2nc3ccncc3[nH]2)c(OC)c1,"inconclusive: 31.6 µM [inhibitor, single point]",–
Cc1ccc(C)n1-c1c(C(=O)NCCCN2CCN(c3ccc(F)cc3)CC2)sc2ncccc12,"inconclusive: 17.8 µM [inhibitor, partial curve, poor fit]",–
Cc1ccc(Cl)cc1-n1ncc2c(NCCCn3ccnc3)ncnc21,"inconclusive: 31.6 µM [inhibitor, partial curve, poor fit]",–
COc1ccc(NC(=O)CCn2nc(-c3ccccc3OC)c3c(C)cc(C)nc32)cc1,"inconclusive: 28.2 µM [inhibitor, single point]",–
Cc1ccccc1OCc1ccc(-c2nc(C#N)c(N3CCN(C)CC3)o2)o1,"inconclusive: 22.4 µM [inhibitor, partial curve, poor fit]",–
CC1=C(C(=O)OCC(C)C)C(c2ccc(OCc3ccccc3)cc2)N2C(=O)CCSC2=N1 (centres undefined),"inconclusive: 35.5 µM [inhibitor, single point]",–
CCCCN(C)C(=O)C1CCC(CNS(=O)(=O)c2ccc3c(c2)CC(C)N3C(C)=O)CC1 (centres undefined),"inconclusive: 12.6 µM [inhibitor, partial curve, poor fit]",–
Cc1c(C)n(Cc2ccccc2)c2ccc(C(=O)NCCc3ccccc3Cl)cc12,–,inactive: -6.43%
CC(O)(C#Cc1ccc2c(c1)N(c1nc(N)ncc1Cl)CC2)c1nccs1 (centres undefined),"inconclusive: 12.2 µM [inhibitor, partial curve]",–
O=C(NCCc1csc(-c2cccc(F)c2)n1)c1ccc(Br)o1,"inconclusive: 39.8 µM [inhibitor, partial curve, poor fit]",–
CCOc1ccccc1CNC(=O)CCc1cn(Cc2ccc(Cl)cc2)c2ccccc12,"inconclusive: 28.2 µM [inhibitor, single point]",–
Cc1ccc(NC(=O)CN2C(=O)COc3ccc(S(=O)(=O)N4CCCCCC4)cc32)cc1C,"inconclusive: 39.8 µM [inhibitor, single point]",–
N#C/C(=C\c1ccc(-c2ccc(F)cc2F)o1)c1nc2ccccc2[nH]1,–,inactive: 6.4%
COc1ccc(-c2onc(C)c2C)cc1S(=O)(=O)NCc1ccc(Br)cc1,"inconclusive: 39.8 µM [inhibitor, single point]",–
OC[C@H]1O[C@@H](n2cnc3c(=S)nc[nH]c32)[C@H](O)[C@@H]1O,"inconclusive: 7.94 µM [inhibitor, full curve, poor fit]",–
CCOc1ccc(NS(=O)(=O)c2ccc3c(c2)CCN3C(C)=O)cc1,"inconclusive: 3.98 µM [inhibitor, partial curve, poor fit]",–
Cc1ccc(S(=O)(=O)NCC2CCC(C(=O)N(C)Cc3ccccc3)CC2)cc1 (centres undefined),"inconclusive: 14.1 µM [inhibitor, partial curve]",–
